Binding data for 6 substances are collected here from paper PMC3431379.

Protein sequences, listed by entry. Tags and fused reporters are not part of them. Lines headed by an entry give the natural chain unless they say otherwise; changes in a name come on top. Chains listed by the source or under a name are the forms on record and can include a tag or linker. Residues count along the entry.
UniProt O88545: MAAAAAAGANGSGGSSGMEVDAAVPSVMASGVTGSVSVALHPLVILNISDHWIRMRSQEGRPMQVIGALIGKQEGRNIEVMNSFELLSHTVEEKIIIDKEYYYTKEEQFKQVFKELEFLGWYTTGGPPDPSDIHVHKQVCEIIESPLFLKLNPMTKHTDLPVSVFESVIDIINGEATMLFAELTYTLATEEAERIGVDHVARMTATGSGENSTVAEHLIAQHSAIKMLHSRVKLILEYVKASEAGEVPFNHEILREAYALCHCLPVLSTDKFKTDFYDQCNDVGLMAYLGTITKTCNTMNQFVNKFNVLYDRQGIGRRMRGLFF
HA-tagged mouse Csn6 truncation mutant HA-S6MPN: residues 38-171 of O88545
UniProt Q13098: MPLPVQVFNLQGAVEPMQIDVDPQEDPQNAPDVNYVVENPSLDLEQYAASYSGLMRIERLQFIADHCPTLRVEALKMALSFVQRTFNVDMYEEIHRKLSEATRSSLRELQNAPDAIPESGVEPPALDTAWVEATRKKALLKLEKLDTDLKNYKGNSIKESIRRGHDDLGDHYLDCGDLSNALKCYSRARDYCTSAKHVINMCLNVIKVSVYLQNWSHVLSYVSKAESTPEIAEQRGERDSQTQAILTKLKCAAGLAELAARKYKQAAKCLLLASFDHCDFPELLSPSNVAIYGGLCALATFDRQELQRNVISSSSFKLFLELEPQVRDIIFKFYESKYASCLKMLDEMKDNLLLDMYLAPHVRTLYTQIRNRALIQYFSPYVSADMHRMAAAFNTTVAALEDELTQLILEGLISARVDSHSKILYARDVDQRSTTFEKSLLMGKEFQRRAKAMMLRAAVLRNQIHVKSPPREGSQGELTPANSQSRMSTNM
UniProt P61201: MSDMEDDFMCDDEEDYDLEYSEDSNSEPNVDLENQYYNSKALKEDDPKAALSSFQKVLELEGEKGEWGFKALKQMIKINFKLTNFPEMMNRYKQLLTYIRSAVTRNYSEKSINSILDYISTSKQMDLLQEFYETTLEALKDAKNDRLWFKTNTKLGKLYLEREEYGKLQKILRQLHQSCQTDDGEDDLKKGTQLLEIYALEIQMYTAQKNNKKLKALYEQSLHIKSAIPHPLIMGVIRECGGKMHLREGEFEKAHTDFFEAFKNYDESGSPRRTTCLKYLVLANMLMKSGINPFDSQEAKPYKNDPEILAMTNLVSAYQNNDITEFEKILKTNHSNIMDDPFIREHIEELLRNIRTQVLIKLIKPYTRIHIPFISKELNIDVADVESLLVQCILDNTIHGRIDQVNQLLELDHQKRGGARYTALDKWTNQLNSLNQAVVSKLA
UniProt Q9UNS2: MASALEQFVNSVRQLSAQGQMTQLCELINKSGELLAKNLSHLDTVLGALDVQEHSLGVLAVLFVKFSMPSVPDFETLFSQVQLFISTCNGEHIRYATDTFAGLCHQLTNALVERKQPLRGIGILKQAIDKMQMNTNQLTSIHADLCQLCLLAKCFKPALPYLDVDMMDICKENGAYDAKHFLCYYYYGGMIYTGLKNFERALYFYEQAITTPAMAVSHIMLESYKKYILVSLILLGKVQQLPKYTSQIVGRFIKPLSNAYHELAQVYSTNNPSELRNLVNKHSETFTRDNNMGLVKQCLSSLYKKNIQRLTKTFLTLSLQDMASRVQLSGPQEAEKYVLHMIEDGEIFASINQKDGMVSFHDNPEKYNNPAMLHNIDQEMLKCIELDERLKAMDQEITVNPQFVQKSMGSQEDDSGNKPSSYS
UniProt Q92905: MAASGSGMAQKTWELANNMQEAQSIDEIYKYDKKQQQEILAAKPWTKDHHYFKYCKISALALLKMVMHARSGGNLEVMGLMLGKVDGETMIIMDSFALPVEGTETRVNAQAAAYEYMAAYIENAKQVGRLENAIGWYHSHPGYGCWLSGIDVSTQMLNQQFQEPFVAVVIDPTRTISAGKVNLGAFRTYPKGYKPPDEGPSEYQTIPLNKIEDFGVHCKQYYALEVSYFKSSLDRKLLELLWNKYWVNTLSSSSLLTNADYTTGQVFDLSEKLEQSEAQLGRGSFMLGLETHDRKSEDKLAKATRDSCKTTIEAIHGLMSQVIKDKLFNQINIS
UniProt Q99627: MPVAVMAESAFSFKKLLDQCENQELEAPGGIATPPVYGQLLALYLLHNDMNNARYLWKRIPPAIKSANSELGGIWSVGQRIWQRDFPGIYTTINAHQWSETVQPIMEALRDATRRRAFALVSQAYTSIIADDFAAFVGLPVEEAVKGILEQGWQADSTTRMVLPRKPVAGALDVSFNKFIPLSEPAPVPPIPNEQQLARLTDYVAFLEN

Results are given in words; binding and its absence hold for the method and conditions named. Binding seen in cells or lysates may run through a third protein. Some binding calls cover weakened binding; strength is not graded here.

Assay [1] concerns the target HA-tagged full length mouse Csn6 (HA-S6FL) (mouse) (UniProt O88545). Put plainly: co-IP; HA-tagged Csn6 constructs co-expressed with Flag-S6FL; HA (Bethyl S190-107) immunoprecipitation from cell lysate, immunoblot for Flag-S6FL and endogenous CSN subunits. On the technique in general: In western blotting, separated proteins are transferred to a membrane and probed.
In assay [2] the target is HA-tagged mouse Csn6 truncation mutant HA-S6MPN (mouse) (UniProt O88545). The description is as above.
Assay [3] concerns the target HA-tagged full length mouse Csn6 (HA-S6FL) (mouse) (UniProt O88545). The experiment in a line: co-IP; HA-tagged mouse Csn6 constructs expressed in HeLa cells; HA immunoprecipitation from lysate, immunoblot of endogenous proteins; addition of 330 mM NaCl interfered with CSN-cullin interactions.
The target in assay [4] is HA-tagged mouse Csn6 truncation mutant HA-S6MPN (mouse) (UniProt O88545). Described as above.

Regarding “Flag-tagged full length Csn6 (Flag-S6FL) (from UniProt O88545 1-324)”, the values for the binding result in assay [1] and in assay [2] were “no binding” and “binds”, respectively.

For the substance “endogenous Csn1 (from UniProt Q13098 1-491)”, the binding entry in assay [3] is recorded as “binds”; in assay [4], “no binding”.

Consider “endogenous Csn2 (from UniProt P61201 1-443)”, for which the binding entry in assay [3] is reported as “binds”; in assay [4] it was “no binding”.

As to “endogenous Csn3 (from UniProt Q9UNS2 1-423)”, the binding entry in assay [3] is “binds”; in assay [4], “no binding”.

Regarding “endogenous Csn5 (from UniProt Q92905 1-334)”, the binding entry in assay [3] was “binds”; in assay [4], “no binding”.

Regarding “endogenous Csn8 (from UniProt Q99627 1-209)”, the binding entry in assay [3] is reported as “binds”; in assay [4], “no binding”.
